To fix the notation:
T1: UNK ZnF1-3 (human, UniProt Q9C0B0 31-174)
T1 sequence: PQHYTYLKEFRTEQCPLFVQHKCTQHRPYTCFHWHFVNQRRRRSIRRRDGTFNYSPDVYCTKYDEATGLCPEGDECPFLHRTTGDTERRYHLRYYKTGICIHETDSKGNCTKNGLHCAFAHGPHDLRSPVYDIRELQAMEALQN

B1: 128470954_128474126_3443_CDS_ENSMUSG00000014355_ENSMUST00000014499|mouse|control|control (ssRNA)
RNA: GGGAGUUCUACAGUCCGACGAUCAAGGGCCAUAGUUCGCUGACACAACUGGAGCAGUCUGUUUUCCUUUUCUUCAAUGAACUCAUGGUCACUGAGUUCUGGGUACUGCACCACAUUGACACGGACAGGCUGUGCACUUUGAAGCAACAGAGGAUUGAGCAUCA
B2: chr8:47723363:47723364:+_ENSMUSG00000031628_ENSMUST00000093517|mus_mus|FALSE|FALSE (ssRNA)
RNA: GGGAGUUCUACAGUCCGACGAUCGGAGAAGGACUCGAAUUCCGUUGCCACCUUCCUGUUAACGCGAGUGAGAAUGUGCAUAAAUUCUAGCUUGUGCGCGUACAGCUUCAGCAUGCUGCAAAGGGACUGGAUGAACCACGACCCCAACAGAGGAUUGAGCAUCA
B3: chr9:42776281:42776282:-_ENSMUSG00000059495_ENSMUST00000165665|mus_mus|motif|central (ssRNA)
RNA: GGGAGUUCUACAGUCCGACGAUCAAACCUCCUCAAGUCUGCAACUCUCCCACCCACCCCCCAUAGCACCCCCACCACCACGGAGCAUUCCAUUCCUUUGUUCCUAUUUCCUGCUCACUCUGCAGGGAAUAUUUCAUACAAGUGCAACAGAGGAUUGAGCAUCA
B4: 103088726_103090153_1953_CDS_ENSG00000136891_ENST00000374902|human|control|control (ssRNA)
RNA: GGGAGUUCUACAGUCCGACGAUCUGCAGGGAGAACCACCACAGCACCUUCUUGUGGAUCAUAAAUUCGGAGGGCAGUAGCUUGUAAACUUUUUAGUAAUUCUUUAUUUGCUCGUGCUGCAGCGGUAUGAAUGAUAUCGAUAAGCAACAGAGGAUUGAGCAUCA
B5: chr12:42180722:42180723:-_ENSMUSG00000036295_ENSMUST00000043884|mus_hu|mus_mus_mus_hu_True|18_88 (ssRNA)
RNA: GGGAGUUCUACAGUCCGACGAUCCUGUAGGAGAAGAAUCUGUGUGUCGGCAGGCAAUCUGGCUGGGAAAGUUAAAAGACCUAAAUCAUUACAAUCCACUGUAGAUGCUUCCAUAUAGAUGGAUCUCGGUGUAAACCAAGGCCUCAACAGAGGAUUGAGCAUCA
B6: 106707438_106713778_1258_3pUTR_ENSMUSG00000018363_ENSMUST00000103067|mouse|control|control (ssRNA)
RNA: GGGAGUUCUACAGUCCGACGAUCUGAUGUUGCUAAGAUCCCUAGGCACUCGUGGAUCAUGCCAUGUGCUCACACCAGUCUGAGUAUGUAAGAAAUAUACCUGACCCUGCUGCGUUGUCCUUUGUUCAUAGCCUUCCGGUAGGUCAACAGAGGAUUGAGCAUCA
B7: chr14:53324496:53324497:-_ENSG00000073712_ENST00000341590|hu_hu|motif|central (ssRNA)
RNA: GGGAGUUCUACAGUCCGACGAUCAUUGUAAUGCAAAGAGUUGCAUAUUUUAGGCAGACAGUGAUUAUGCUGGUGAAUACGGAAAGUGUAAUACAAUAUGGUGUAAAAAUAAAAACACGAGACAAUAUACAUAACAUGCUUAUUCAACAGAGGAUUGAGCAUCA
B8: chr6:108246082:108246083:-_ENSG00000025796_ENST00000369002|hu_mus|FALSE|FALSE (ssRNA)
RNA: GGGAGUUCUACAGUCCGACGAUCUGUUUUGGAAACUUUGUAUGCAAGAAAUAAGAACAGUGCCCAUCCUGCAAGCAGAACUAUUUUCUUUACUGUAGGAAUAAUAUUUGGCUGGGGUUUUAAUAACCGUAAACGAUACCACAUCAACAGAGGAUUGAGCAUCA
B9: 66274149_66274269_2242_3pUTR_ENSMUSG00000024098_ENSMUST00000024906|mouse|control|control (ssRNA)
RNA: GGGAGUUCUACAGUCCGACGAUCUAAUGAGAUAUGCACUAGAGAAAAUAGCAAUUCUAUAAAAUUGAACCUGUGUAUUAUAGAUAUUUGUUUUUGAUUCAUGCUUGAAGGUGAGAAUUUUAUUACUAGGAAGGGCGUGUAGUACAACAGAGGAUUGAGCAUCA
B10: chr9:114657494:114657495:+_ENSMUSG00000032434_ENSMUST00000035007|mus_hu|FALSE|FALSE (ssRNA)
RNA: GGGAGUUCUACAGUCCGACGAUCCCAGCUGAGAAUGUAUCUGUCAAUCCUGACUAAGCCCAAUACAUGGGUGGUGACCCUGAGGUAGCCCAGAUGAUAUGCUCUGAAUUUUAGAUAGGUCUAAAUCACAAUGGUACAGUCUGACAACAGAGGAUUGAGCAUCA
B11: chr11:121174221:121174222:+_ENSG00000109929_ENST00000392789|hu_mus|FALSE|FALSE (ssRNA)
RNA: GGGAGUUCUACAGUCCGACGAUCGGUUGCACAGAAGAAGUAGAGAAUGUAAGCACCCAGGUUUGUGACAAUCAGGAGGCUAAUAGUUUGUCGGAUGAUGUUGUCCUCGGGCCACGUGGCUGGAUAUACAUACGGAGUGAAGAACAACAGAGGAUUGAGCAUCA
B12: chr7:107985766:107985767:+_ENSMUSG00000029461_ENSMUST00000049053|mus_mus|FALSE|FALSE (ssRNA)
RNA: GGGAGUUCUACAGUCCGACGAUCAUCCCUAGCAAAAUUUUUGUAGGUAAAAUGCCAGUAGUAGGACGGCUGCAUUUAAUGCUAAUUUACAGUGAGGUUCAGAGAAGUCCUUUCUGCUUCUCUGGGCCUCAGUUUCCUCAUCUGCAACAGAGGAUUGAGCAUCA
B13: chr2:86849987:86849988:-_ENSG00000239305_ENST00000237455|hu_mus|FALSE|FALSE (ssRNA)
RNA: GGGAGUUCUACAGUCCGACGAUCCACAAUGGCCUCAAAAAACCUGGCCAGGACGAACAGGACCAGGAAAUACAGGAGCAAGAAAAACAGCUUCAGCCACAUCUUCGCCCUCUUGGCGUCGCCAGGAGCCGGGACGCCGUGGACCAACAGAGGAUUGAGCAUCA
B14: chr19:8913615:8913616:-_ENSMUSG00000071658_ENSMUST00000096259|mus_hu|mus_mus_mus_hu_False|28_108 (ssRNA)
RNA: GGGAGUUCUACAGUCCGACGAUCAGGGGGGCACCAACUUCUGCCUGAAAUGGGUGCCCCACCCAGUAGGGAGUUGCAGCUGAAAGUAUCUGAUGCAGAAGCAGUGAAUGCAGAGAAGGAGGCCCCUGGGGAGGGCCAGGCCAGCAACAGAGGAUUGAGCAUCA

Some of the results follow.

In this test the target is T1, UNK ZnF1-3. The experiment in a line: nsRBNS (natural sequence RNA bind-n-seq); RBNS binding buffer (assumed for nsRBNS): 25 mM Tris pH 7.5, 150 mM KCl, 3 mM MgCl2, 0.01% Triton X-100, 500 ug/ml BSA, 20 U/ml SUPERase-In, 4 C; UNK is unkempt and MSI1 is Musashi-1; names of the RNAs are library labels; protein concentration not given here; high values mean tight binding.
Regarding B1, the binding signal stood at 0.731 enrichment R. Molecule B2 returned a binding signal of 1.22 enrichment R. Then B3, with 0.406 enrichment R; and B4, with 1.16 enrichment R. For B5, the binding signal is 0.868 enrichment R. Then B6, with 0.708 enrichment R. Then B7, with 1.19 enrichment R; and B8, with 0.751 enrichment R. Then B9, with 1.77 enrichment R. In turn, B10 gave a binding signal of 0.906 enrichment R. With B11 the figure was 1.98 enrichment R; with B12, 0.746 enrichment R. B13 registered a binding signal of 1.09 enrichment R. With B14 the figure was 1.17 enrichment R.

The values are drawn from publication PMC12136788.
